No constants are given. Whether binding was seen depends on the method and setting. In cells and extracts the contact can be indirect. Some entries that bind do so weakly or less than the wild type. Where a sequence is shown, tags or fusion partners need not be part of it.

Chains of the proteins cited; added tags and fusions are not shown.
UniProt Q13136: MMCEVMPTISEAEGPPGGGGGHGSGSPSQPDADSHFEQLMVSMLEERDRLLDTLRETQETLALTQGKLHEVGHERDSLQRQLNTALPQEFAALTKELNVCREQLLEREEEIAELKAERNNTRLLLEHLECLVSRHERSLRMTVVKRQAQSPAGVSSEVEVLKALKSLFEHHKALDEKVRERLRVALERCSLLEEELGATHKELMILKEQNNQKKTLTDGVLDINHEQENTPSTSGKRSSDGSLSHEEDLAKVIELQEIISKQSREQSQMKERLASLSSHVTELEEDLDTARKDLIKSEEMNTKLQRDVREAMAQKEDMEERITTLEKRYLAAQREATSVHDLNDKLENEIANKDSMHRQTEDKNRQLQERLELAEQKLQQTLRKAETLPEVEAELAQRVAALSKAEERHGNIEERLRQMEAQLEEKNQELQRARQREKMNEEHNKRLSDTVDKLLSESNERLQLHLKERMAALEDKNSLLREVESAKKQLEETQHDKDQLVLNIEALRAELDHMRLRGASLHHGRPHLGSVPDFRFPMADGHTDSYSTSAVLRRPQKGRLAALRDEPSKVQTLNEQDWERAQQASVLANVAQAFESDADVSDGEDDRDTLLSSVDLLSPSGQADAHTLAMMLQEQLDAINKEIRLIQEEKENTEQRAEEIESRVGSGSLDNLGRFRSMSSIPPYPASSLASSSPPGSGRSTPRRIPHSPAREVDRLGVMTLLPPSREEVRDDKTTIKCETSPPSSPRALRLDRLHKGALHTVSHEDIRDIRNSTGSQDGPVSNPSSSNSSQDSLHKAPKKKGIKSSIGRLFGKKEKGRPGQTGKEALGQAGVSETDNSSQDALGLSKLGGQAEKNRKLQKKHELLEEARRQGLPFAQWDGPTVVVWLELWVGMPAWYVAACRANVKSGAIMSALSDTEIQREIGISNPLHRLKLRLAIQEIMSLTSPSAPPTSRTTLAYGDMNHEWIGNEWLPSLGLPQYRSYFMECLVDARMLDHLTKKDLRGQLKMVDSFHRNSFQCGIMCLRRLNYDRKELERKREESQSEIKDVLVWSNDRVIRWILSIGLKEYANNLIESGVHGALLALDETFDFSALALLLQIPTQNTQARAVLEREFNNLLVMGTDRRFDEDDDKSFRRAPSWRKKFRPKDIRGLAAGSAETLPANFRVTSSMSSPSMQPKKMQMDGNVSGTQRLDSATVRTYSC

Assay [1] addresses T1, GFP-tagged MID2 (Fig 5E) (human) (UniProt Q9UJV3).
T1 sequence: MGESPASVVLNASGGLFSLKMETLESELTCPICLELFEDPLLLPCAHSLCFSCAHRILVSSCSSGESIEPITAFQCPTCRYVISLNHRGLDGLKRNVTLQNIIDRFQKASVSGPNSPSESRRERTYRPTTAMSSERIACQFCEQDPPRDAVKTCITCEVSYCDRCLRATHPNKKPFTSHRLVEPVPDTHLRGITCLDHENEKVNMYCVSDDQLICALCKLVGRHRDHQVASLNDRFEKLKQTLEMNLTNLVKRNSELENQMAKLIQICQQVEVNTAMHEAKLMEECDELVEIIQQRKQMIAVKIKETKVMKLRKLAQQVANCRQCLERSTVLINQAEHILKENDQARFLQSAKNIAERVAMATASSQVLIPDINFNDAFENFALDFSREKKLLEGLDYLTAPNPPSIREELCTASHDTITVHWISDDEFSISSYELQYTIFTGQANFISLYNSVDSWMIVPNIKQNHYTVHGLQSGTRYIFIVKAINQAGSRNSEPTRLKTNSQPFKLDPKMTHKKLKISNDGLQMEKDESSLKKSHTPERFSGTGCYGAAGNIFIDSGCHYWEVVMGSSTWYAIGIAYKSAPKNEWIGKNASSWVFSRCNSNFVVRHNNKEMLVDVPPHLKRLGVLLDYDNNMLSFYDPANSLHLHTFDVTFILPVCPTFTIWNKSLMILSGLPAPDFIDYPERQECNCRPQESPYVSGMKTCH
In words: pull-down; GFP pull-down of GFP-tagged MID2 from cells co-transfected with untagged LNX1p70 and FLAG-liprin-α1, western blot. A general note: In western blotting, separated proteins are transferred to a membrane and probed.

For assay [2], the target named is T2, GFP-tagged LNX1p80 (Ligand of Numb protein X1, p80 isoform) (mouse) (UniProt O70263).
T2 sequence: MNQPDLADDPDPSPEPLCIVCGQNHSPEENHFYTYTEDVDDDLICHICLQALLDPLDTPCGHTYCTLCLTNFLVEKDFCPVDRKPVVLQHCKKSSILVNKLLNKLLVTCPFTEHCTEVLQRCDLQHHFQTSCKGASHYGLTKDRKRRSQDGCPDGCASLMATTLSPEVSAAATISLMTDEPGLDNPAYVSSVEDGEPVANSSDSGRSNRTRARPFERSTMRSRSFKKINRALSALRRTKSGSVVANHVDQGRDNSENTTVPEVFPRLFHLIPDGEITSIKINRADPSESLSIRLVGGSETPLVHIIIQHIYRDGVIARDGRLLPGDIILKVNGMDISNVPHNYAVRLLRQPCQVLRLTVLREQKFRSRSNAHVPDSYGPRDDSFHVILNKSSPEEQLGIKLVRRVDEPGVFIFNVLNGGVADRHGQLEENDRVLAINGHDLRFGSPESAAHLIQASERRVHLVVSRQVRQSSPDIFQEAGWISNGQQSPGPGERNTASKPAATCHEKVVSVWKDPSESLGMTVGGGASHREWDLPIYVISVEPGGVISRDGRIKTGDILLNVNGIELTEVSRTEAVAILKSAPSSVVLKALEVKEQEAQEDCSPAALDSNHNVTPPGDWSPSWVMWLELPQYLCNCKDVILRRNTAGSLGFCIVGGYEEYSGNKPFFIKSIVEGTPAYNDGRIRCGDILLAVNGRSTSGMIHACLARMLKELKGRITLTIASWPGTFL
The assay is described as follows: pull-down; GFP pull-down: GFP-tagged LNX constructs transfected into HEK 293 cells (HEK 293T in Fig 3A) alone or with the partner, captured on GFP-Trap_M beads, western blot; NaCl in the wash up to 500 mM in some cases.

Assay [3] concerns the target T3, GFP-LNX1 PDZ2 (aa377-470) (mouse) (UniProt O70263).
T3 sequence: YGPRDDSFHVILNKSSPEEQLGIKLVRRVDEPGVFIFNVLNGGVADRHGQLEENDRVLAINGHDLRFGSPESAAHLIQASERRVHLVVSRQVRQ
The description is as above.

Assay [4] concerns the target T2, GFP-tagged LNX1p80 (Ligand of Numb protein X1, p80 isoform) (mouse). In words: pull-down; GFP pull-down of GFP-LNX1p80 from HEK 293 cells co-transfected with FLAG-MID1 and HA-MID2, western blot.
Assay [5] deals with T4, GFP-LNX1 PDZ1 (aa271-384) (mouse) (UniProt O70263).
T4 sequence: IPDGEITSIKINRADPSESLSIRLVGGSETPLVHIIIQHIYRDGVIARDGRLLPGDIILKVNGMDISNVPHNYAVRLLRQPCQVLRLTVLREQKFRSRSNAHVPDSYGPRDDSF
The assay is described as follows: pull-down; GFP pull-down: GFP-tagged LNX constructs transfected into HEK 293 cells (HEK 293T in Fig 3A) alone or with the partner, captured on GFP-Trap_M beads, western blot; NaCl in the wash up to 500 mM in some cases.

Assay [6] deals with T5, GFP-tagged LNX2 (mouse) (UniProt Q91XL2).
T5 sequence: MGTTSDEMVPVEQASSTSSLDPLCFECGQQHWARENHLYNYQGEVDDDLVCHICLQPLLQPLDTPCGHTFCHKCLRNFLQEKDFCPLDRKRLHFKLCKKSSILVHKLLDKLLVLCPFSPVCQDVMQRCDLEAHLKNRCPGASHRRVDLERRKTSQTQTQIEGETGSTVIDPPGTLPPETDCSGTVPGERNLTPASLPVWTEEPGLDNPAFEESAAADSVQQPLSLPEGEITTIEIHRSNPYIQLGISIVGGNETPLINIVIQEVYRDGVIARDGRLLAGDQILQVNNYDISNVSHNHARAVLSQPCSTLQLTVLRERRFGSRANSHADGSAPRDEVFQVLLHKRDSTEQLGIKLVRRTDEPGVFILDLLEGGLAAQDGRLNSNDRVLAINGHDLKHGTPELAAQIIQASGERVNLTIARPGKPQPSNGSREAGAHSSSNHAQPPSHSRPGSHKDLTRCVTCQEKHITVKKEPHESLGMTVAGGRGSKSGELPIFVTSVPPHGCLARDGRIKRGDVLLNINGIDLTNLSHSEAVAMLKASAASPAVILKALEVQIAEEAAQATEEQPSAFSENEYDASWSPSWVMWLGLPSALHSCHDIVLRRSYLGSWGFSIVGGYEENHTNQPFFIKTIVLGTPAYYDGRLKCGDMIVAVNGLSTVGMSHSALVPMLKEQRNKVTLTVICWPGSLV
The assay is described as above.

With “wild-type FLAG-liprin-α1 (from UniProt Q13136 1-1202)”, the binding result is “no binding” in assay [1], “binds” in assay [2] and “binds” in assay [3].

B1: HA epitope-tagged MID2 (Fig 5C) (protein, UniProt Q9UJV3-2 1-705)
chain: T1 sequence
Take B1: the binding result in assay [4] is given as “binds”.

B2: SynGAP1, transfected, HA or GST epitope-tagged (Fig 1B) (protein, UniProt Q96PV0 1-1343)
chain: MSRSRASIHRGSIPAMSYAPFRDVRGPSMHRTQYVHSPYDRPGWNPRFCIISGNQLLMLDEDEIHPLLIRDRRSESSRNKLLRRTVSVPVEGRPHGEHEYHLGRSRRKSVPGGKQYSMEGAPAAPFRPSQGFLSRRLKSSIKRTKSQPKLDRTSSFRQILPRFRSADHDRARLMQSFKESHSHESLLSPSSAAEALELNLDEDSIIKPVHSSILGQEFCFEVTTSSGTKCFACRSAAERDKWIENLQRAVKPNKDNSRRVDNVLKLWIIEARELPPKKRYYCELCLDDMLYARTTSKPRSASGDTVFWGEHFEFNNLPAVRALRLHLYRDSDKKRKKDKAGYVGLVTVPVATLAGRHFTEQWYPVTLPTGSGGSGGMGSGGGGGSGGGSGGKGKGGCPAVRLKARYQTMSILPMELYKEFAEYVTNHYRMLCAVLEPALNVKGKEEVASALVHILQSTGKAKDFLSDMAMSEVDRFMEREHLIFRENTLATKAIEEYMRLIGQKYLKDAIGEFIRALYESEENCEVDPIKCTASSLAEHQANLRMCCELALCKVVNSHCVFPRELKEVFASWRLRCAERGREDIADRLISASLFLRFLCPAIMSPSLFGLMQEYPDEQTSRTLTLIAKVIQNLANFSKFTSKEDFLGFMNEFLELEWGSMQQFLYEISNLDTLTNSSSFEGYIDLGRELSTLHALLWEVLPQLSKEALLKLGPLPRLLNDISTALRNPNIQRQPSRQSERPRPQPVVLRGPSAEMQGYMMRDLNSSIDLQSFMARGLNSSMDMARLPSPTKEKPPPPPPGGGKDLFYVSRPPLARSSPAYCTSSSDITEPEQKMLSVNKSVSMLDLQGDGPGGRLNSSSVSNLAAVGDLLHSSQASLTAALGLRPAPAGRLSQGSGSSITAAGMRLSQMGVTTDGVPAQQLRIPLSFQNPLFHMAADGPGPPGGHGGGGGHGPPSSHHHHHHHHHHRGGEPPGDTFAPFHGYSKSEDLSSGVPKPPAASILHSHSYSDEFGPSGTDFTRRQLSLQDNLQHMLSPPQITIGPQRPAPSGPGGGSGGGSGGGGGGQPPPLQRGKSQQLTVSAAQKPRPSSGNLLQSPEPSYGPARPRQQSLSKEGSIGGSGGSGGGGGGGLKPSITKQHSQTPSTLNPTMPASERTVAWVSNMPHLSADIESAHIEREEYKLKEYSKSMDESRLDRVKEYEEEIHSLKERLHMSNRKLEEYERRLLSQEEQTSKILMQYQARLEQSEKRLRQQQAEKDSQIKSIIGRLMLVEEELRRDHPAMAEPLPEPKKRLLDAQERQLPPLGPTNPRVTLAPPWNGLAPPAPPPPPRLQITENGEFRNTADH
On to B2, for which the binding result in assay [5], in assay [2], in assay [6] and in assay [3] was “binds” each time.

The values above are taken from paper PMC5679597.
